# PubChem BioAssay AID1631 (National Center for Advancing Translational Sciences (NCATS), 2009)
# The campaign covered roughly 260,000 compounds. About 890 (0.34%) were called active. This list was built around the results that the source calls inconclusive (neither active nor inactive); the mix of calls is not that of the screen. Calls come from the whole dose curve; as a rule, active = well fitted activation curve with a large enough effect; inconclusive = small, poorly fitted or top-dose-only effect; inactive = no such curve, though single readings can be large or run the other way. No potency is given beside an inconclusive call; the fits are too rough.
# Target: Pyruvate kinase PKM (Homo sapiens) (UniProt P14618)
# UniProt P14618, sequence (P14618 whole entry, looked up, canonical isoform): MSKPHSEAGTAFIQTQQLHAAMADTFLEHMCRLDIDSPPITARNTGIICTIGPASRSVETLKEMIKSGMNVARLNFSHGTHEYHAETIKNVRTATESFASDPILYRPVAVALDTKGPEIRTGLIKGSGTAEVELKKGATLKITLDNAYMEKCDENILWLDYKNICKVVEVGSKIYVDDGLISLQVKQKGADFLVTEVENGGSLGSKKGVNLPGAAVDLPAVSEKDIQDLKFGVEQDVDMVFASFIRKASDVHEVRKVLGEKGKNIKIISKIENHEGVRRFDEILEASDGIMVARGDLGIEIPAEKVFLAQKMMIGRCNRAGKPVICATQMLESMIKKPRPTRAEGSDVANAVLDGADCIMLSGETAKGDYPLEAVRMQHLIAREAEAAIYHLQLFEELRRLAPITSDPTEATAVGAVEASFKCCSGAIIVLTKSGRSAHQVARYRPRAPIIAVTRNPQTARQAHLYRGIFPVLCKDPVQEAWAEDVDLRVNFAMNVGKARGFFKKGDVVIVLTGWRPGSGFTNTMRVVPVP
# Assay: qHTS Assay for Activators of Human Muscle isoform 2 Pyruvate Kinase; note: nearly all actives have a fitted effect of over 55% in size
# Settings: purified PKM2, Kinase-Glo ATP luminescence; Potency: activation; activation: at 57.5 µM (top of the series), 0% is enzyme alone, no compound
# In short: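 Kinase-Glo luminescence reports ATP generated from ADP (0.1 mM) and PEP (0.5 mM) by purified hPK-M2 after 1 h at room temperature, pH 7.2 imidazole buffer; intermediate enzyme activity allows detecting inhibitors and activators.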
# Potency is the fitted concentration of half-maximal effect; tags give direction and shape of the fitted curve.
row,Compound,Potency
1,CC(=O)Nc1ccc(C(=O)OCCC(C)C)cc1,"inconclusive [rising, single point]"
2,CCOC(=O)C1(CCCc2ccccc2)CCN(Cc2cnn(C)c2)CC1,"inconclusive [rising, single point]"
3,S=C(NCc1ccncc1)NC1CCCC1,"inconclusive [rising, single point]"
4,O=C(COC(=O)c1ccc(NS(=O)(=O)c2cccs2)cc1)NCc1ccco1,active: 14.1 µM
5,Cc1[nH]nc2c1C(c1cc(Br)cs1)C(C#N)=C(N)O2 (centres undefined),inactive
6,Cc1ccc(-c2cc(C(=O)N3CCN(c4ccc(F)cc4)CC3)c3ccccc3n2)o1,"inconclusive [rising, single point]"
7,COc1ccc(/C=N/NC(N)=S)cc1OC(=O)c1cccc2ccccc12,inactive
8,O=C(NC(=S)NCc1ccccc1)C1CC1,inactive
9,CN(C)C(=S)NC(=O)c1cccc(Cl)c1,"inconclusive [rising, single point]"
10,COC(=O)c1ccc(CSc2nc3scc(-c4cccs4)c3c(=O)[nH]2)o1,"inconclusive [rising, single point]"
11,Cc1cc(=O)[nH]c2ccc(S(=O)(=O)Nc3ccccc3)cc12,"inconclusive [rising, full curve]"
12,COc1ccc(S(=O)(=O)N2CCCN(CC(=O)Nc3ccc4c(c3)OCO4)CC2)cc1,"inconclusive [rising, partial curve]"
13,COc1ccc(-c2[nH]ncc2CNCCn2cccn2)c(F)c1,"inconclusive [rising, single point]"
14,O=C(COc1ccc(S(=O)(=O)N2CCOCC2)cc1Cl)NCC1CCCO1 (centres undefined),"inconclusive [rising, partial curve]"
15,COc1ccc(CN2C(=O)CN=C2Nc2cccc(C)c2C)cc1,"inconclusive [rising, single point]"
16,O=C(Nc1ccccc1Cl)/C(Cl)=C(\Cl)S(=O)c1ccccc1 (centres undefined),"inconclusive [rising, partial curve]"
17,COc1ccc(C)cc1-n1nnnc1SCn1nnc2ccccc2c1=O,"inconclusive [rising, full curve, poor fit]"
18,CCOCCCNC(=O)/C(C#N)=C/c1ccc(C)o1,"inconclusive [rising, single point]"
19,CCn1c(=O)c2c(nc(SCc3ccccn3)n2C)n(C)c1=O,"inconclusive [rising, single point]"
20,Cn1c(Cn2cnc(Cl)c2Cl)nc2ccccc21,active: 25.1 µM
21,Cc1[nH]nc(SCC(=O)Nc2cccc(O)c2)c1[N+](=O)[O-],active: 10 µM
22,C#CCOc1c(Cl)cc(/C=N/NC(N)=S)cc1OCC,inactive
23,O=C(COc1ccc(Cl)cc1)N1CCN(S(=O)(=O)c2ccccc2)CC1,"inconclusive [rising, partial curve]"
24,CCOc1ccc(S(=O)(=O)Nc2cccc(OC)c2)cc1,"inconclusive [rising, partial curve]"
25,Cc1c(/C=N\NC(=O)c2csc3ccccc23)cnn1C,inactive

row,Compound,Potency
1,CCN(CC)S(=O)(=O)c1ccc(NC(=S)NC(=O)C(C)C)cc1,inactive
2,CNCc1nc2ccccc2[nH]1,"inconclusive [rising, single point]"
3,COc1cccc(C(=O)N(Cc2cc3cc(C)ccc3[nH]c2=O)CC2CCCO2)c1 (centres undefined),inactive
4,Oc1ccc(NC(=S)Nc2ccc(F)cc2)cc1,inactive
5,Oc1ccc(/C=N/N(Cc2ccccc2)c2ccccc2)c(O)c1O,inactive
6,O=C(Cc1cccs1)N/N=C/C=C/c1ccco1,inactive
7,Cn1c(Cl)cnc1C1CC(=O)c2cc(Cl)ccc2O1 (centres undefined),"inconclusive [rising, full curve]"
8,Cc1cccc2c(C(=O)N3CCN(c4ccccc4)CC3)cc(-c3ccncc3)nc12,inactive
9,COc1cccc2cc(C(=O)Nc3cc(Cl)ccc3N3CCOCC3)c(=O)oc12,"inconclusive [rising, single point]"
10,CCCCC1(CO)C(=O)N(c2ccccc2)N(c2ccccc2)C1=O,"inconclusive [rising, single point]"
11,Cc1nc2ccc(NC(=O)c3cccs3)cc2s1,inactive
12,C=CCN(CC=C)S(=O)(=O)c1ccc(NC(=O)COc2ccccc2OC)cc1,"inconclusive [rising, single point]"
13,COC(=O)c1[nH]c2ccccc2c1NS(=O)(=O)c1ccc(OC)cc1OC,"inconclusive [rising, single point]"
14,c1ccc(Cn2ncc3c(NCc4ccco4)ncnc32)cc1,active: 14.1 µM
15,COc1ccc(/C=N/NC(=O)COc2cccc3cccnc23)cc1OC,"inconclusive [rising, single point]"
16,COc1ccc(C(=O)O/N=C(\N)Cc2ccc(Cl)cc2)cc1OC,"inconclusive [rising, single point]"
17,Cc1cc(=O)oc2ccc(OCc3ccccc3)cc12,"inconclusive [rising, single point]"
18,CC(c1ccccc1)C1CC(=O)N(Cc2ccco2)C1=O (centres undefined),"inconclusive [rising, single point]"
19,Cc1cc(C)c(S(=O)(=O)N2CCN(C(=O)CCn3nc(C)c(C)c3C)CC2)c(C)c1,active: 14.1 µM
20,Clc1ccc(Cn2ncc3c(N4CCOCC4)ncnc32)cc1,"inconclusive [rising, partial curve]"
21,CCn1c(=O)c2cc(C(=O)N3CCN(C(=O)c4ccco4)CC3)sc2c2ccccc21,"inconclusive [rising, single point]"
22,CCc1nc(SCc2cccnc2)c2c(=O)n(C)c(=O)n(C)c2n1,"inconclusive [rising, partial curve]"
23,CCC(=O)N1CCN(c2ccc(Cl)cc2NC(=O)Cc2ccccc2)CC1,"inconclusive [rising, single point]"
24,CCS(=O)(=O)N1CCC(C(=O)NCc2cccc(OC)c2)CC1,"inconclusive [rising, single point]"
25,Fc1ccccc1CSc1nnnn1-c1ccc2c(c1)OCO2,"inconclusive [rising, single point]"

row,Compound,Potency
1,COCCn1c(=O)[nH]c2cc(C(=O)OC)ccc2c1=O,"inconclusive [rising, single point]"
2,C=Cc1ccc2c(c1)N(C)C(=C)S2,"inconclusive [rising, partial curve]"
3,CCCN1C(=O)c2ccc(C(=O)NCc3ccco3)cc2C1=O,"inconclusive [rising, partial curve]"
4,CCCNC(=O)c1c(O)c2c([nH]c1=O)CCCC2,"inconclusive [rising, partial curve, poor fit]"
5,O=C(Nc1ccc(Cl)cc1)[C@@H]1[C@@H]2C(=O)N(c3ccc4ccccc4c3)C(=O)[C@@H]2[C@H]2C=CC=NN21,"inconclusive [rising, single point]"
6,COc1ccccc1N1CCN(C(=O)CSc2nc(C)c(Cc3ccccc3)c(=O)[nH]2)CC1,active: 12.6 µM
7,O=C(Nc1nnc(SCc2ccc(F)cc2)s1)C1CC(=O)N(Cc2ccccc2)C1 (centres undefined),active: 12.6 µM
8,COc1ccc(C=C2C=C(C(C)(C)C)C(=O)C(C(C)(C)C)=C2)cc1OC,inactive
9,CN(C)C(=O)N1CCN(S(=O)(=O)c2ccc3ccccc3c2)CC1,"inconclusive [rising, single point]"
10,Cc1ccc(O)c(CNc2ccc(S(=O)(=O)Nc3nccs3)cc2)c1,"inconclusive [rising, single point]"
11,Brc1cnc2nc(SCc3nc4ccccc4[nH]3)[nH]c2c1,"inconclusive [rising, single point]"
12,COc1ccc(C)cc1N=Nc1ccc(O)c2ncccc12,inactive
13,Oc1cccc(Nc2nc(O)c(/C=C3\C=Nc4ccccc43)s2)c1,inactive
14,COc1ccc(-c2nc3oc4cc(OC)ccc4c(=O)c3c(=O)n2Cc2ccco2)cc1,"inconclusive [rising, single point]"
15,O=C(CSc1nnc(-c2ccco2)o1)N1CCOCC1,"inconclusive [rising, single point]"
16,COC(=O)c1ccc(NC(=O)c2cc[n+](Cc3ccccc3)cc2)cc1,"inconclusive [rising, single point]"
17,Cn1c(-c2ccc(F)cc2)cnc1SCC(=O)NCc1ccco1,"inconclusive [rising, partial curve]"
18,O=S(=O)(Nc1ccc(Cl)cn1)c1cccc(S(=O)(=O)c2ccccc2)c1,"inconclusive [rising, single point]"
19,CCOC(=O)c1c(NC(=O)CN2CCN(C(=O)c3ccco3)CC2)sc2c1CCCC2,inactive
20,Cc1ccc(S(=O)(=O)N2CCN(C(=O)COc3ccc(-c4nnco4)cc3)CC2)cc1,"inconclusive [rising, partial curve]"
21,CCOC(=O)C1CCN(S(=O)(=O)c2ccc(OC)c(Cl)c2Cl)CC1,"inconclusive [rising, partial curve]"
22,N#CCCN1CCN(C(=S)c2ccc(-c3ccc(Cl)c(Cl)c3)o2)CC1,"inconclusive [rising, partial curve]"
23,Cc1ccc(S(=O)(=O)NCC(=O)NCC(=O)OCc2c(F)cccc2Cl)cc1,active: 35.5 µM
24,Cc1ccc2cc(CN(Cc3ccco3)C(=O)c3ccco3)c3nnnn3c2c1,active: 15.8 µM
